The results in this text go back to publication PMC6919601, “Identification of Plasmodium dipeptidyl aminopeptidase allosteric inhibitors by high throughput screening” (PLoS ONE, 2019).

Values joined by “and” are separate entries in the source; they are usually repeats but may differ in a detail not shown here. Equal values may be shown once. The campaign covered roughly 110,000 compounds. About 230 (0.21%) showed an effect of 50% or more. The list shows a part of the results.
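Further: 30 min substrate incubation versus DMSO and 10 µM JCP410 controls.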

Sequence of DPAP1 (Q8IIJ9 whole entry, looked up): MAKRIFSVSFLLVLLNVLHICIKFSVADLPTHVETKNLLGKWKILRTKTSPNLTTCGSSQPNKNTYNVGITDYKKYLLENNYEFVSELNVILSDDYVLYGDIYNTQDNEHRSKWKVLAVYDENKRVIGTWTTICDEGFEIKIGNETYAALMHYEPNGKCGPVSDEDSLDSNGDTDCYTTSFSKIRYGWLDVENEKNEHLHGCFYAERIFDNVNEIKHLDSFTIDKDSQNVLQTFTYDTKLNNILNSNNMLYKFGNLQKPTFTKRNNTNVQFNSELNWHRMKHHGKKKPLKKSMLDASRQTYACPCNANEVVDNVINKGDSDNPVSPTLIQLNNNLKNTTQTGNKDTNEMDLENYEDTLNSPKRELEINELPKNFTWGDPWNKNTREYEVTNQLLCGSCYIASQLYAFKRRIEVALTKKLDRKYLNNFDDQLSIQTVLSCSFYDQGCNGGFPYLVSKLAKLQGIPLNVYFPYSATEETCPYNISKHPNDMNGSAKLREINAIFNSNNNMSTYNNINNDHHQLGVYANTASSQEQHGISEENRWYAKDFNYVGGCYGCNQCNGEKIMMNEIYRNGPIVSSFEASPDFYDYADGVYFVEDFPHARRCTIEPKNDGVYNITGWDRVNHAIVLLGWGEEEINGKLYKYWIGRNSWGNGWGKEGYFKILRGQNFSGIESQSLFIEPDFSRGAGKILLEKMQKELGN

This assay concerns the target DPAP1 (Plasmodium falciparum, UniProt Q8IIJ9). As to the kind of experiment: primary screen, percent inhibition; read by cleavage of a fluorogenic dipeptide substrate; higher = more effect of the substance. On the set-up: species or system P. falciparum D10 trophozoite lysates; single well.
Consider `Cn1c(=O)[nH]c(=O)c2c1nc(S)n2CC(O)COc1ccc2ccccc2c1` (centres unmarked), for which the “% Inhibition @ 10 uM” value amounted to 30.7%.
Take `CS(=O)(=O)C1=NSC2=NC(=O)/C(=C\c3ccc(OCc4ccccc4F)cc3)C(=N)N21`: the “% Inhibition @ 10 uM” value is given as -1.58%.
`CCOC(=O)N1CCN(C(=O)COc2cc(C)c(Cl)c(C)c2)CC1`: the “% Inhibition @ 10 uM” value stood at 5.75%.
To `COc1cccc(C2=NN(C(C)=O)C(C)(C)O2)c1` belongs 0.907%; to `O=c1oc2ccc(Cl)cc2cc1-c1nc(-c2ccc3c(c2)OCO3)no1`, 1.93%.
Take `O=C(NCCCc1nc2ccccc2n1CCCOc1ccc(Cl)cc1)c1ccco1`: the “% Inhibition @ 10 uM” value came out at 6.78%.
To `CCOc1cc(S(=O)(=O)n2c(C)nc3ccccc32)ccc1F` belongs 3.93%; to `C=CCNC(=O)C1CCCN(S(=O)(=O)N(CC)CC)C1` (centres unmarked), -2.26%; to `Cc1ccccc1OCC(O)CN1C(=O)c2ccccc2C1=O` (centres unmarked), 6.91%.
To `COc1ccc(OC)c(NC(=O)c2sc3nc(-c4ccc(F)cc4)ccc3c2N)c1` belongs 0.161%.
Consider `Cc1ccc(CCN2CC(C(=O)NCc3ccccc3Cl)CC2=O)cc1` (centres unmarked), for which the “% Inhibition @ 10 uM” value turned out to be 3.24%.
Turning to `O=C(O)C1CCN(S(=O)(=O)c2ccc(C(F)(F)F)cc2)CC1`, the “% Inhibition @ 10 uM” value was found to be 9.57%.
For `CCc1c(C#N)c(S)nc2c1CCC2`, the “% Inhibition @ 10 uM” value was 88.7%.
On to `Cc1cccc(CS(=O)(=O)Cc2ccc(C(=O)NCCN3CCCCC3C)o2)c1` (centres unmarked), for which the “% Inhibition @ 10 uM” value was -4.53%.
Take `O=C(CN1CCCCC1)Nc1ccc2c(c1)OCO2`: the “% Inhibition @ 10 uM” value is given as -3.09%.
With `CN1CCN(CC(=O)Nc2ccccc2)CC1` the figure was 0.843%; with `COc1ccc(-c2c(Cc3ccccc3)nn3c(O)c4c(nc23)CCC4)cc1`, -7.19%.
With `CCCCc1c(C(=O)O)cc(OC)cc1C(=O)O`, the “% Inhibition @ 10 uM” value is -4.01%.
To `CCC(Cc1ccccc1)NC(=O)CN1C(=O)CSc2nc(C)cc(C)c21` (centres unmarked) belongs 1.03%; to `CC(C)CC(=O)Nc1ccc(N2CCOCC2)c2nonc12`, -2.88%; to `Cc1ccnc(NC(=O)C(C)Oc2ccccc2C)c1` (centres unmarked), 2.93%.
As for `C=CCN1CCN(c2ccncc2S(=O)(=O)NCC)CC1`, the “% Inhibition @ 10 uM” value was -1.59%.
With `CCC1CCCCN1CCCNC(=O)C1c2cc(OC)c(OC)cc2C(=O)N(C)C1c1cccs1` (centres unmarked) the figure was 2.59%; with `COc1ccc(CNC2CCN(C(C)=O)CC2)cc1`, 3.48%; with `Brc1ccccc1OCCCCCn1ccnc1`, 3%.
For the compound `CNc1oc(Cc2cccc3ccccc23)nc1C#N`, the “% Inhibition @ 10 uM” value was -2.83%.
Regarding `O=C(CN(Cc1ccccc1)S(=O)(=O)c1ccc(F)cc1)Nc1cccc2ccccc12`, the “% Inhibition @ 10 uM” value was -6.27%.
With `COc1cccc(Nc2nc(-c3ccc(Cl)cc3)cs2)c1` the figure was -6.18%; with `O=C(Cc1ccc(Cl)cc1)Nc1ccc(S(=O)(=O)Nc2ccc(Cl)cc2)cc1`, 7.76%.
With `Cc1ccc(Cl)cc1N(CC(=O)Nc1ccc2c(c1)OCO2)S(=O)(=O)c1ccccc1` the figure was -5.88%.
With `COc1cccc(C2C(C(C)=O)=C(O)C(=O)N2c2ccc(C)c(Br)c2)c1` (centres unmarked) the figure was 3.53%; with `CCOc1ccc(N(CC(=O)Nc2c(C)cccc2C)S(=O)(=O)c2ccccc2)cc1`, -3.75%.
Turning to `c1ccc(N2CCN(Cc3c[nH]c4ccccc34)CC2)nc1`, the “% Inhibition @ 10 uM” value is -0.405%.
On to `O=C(Nc1cccc2nsnc12)c1cc(Cl)ccc1NS(=O)(=O)c1cccc2nsnc12`, for which the “% Inhibition @ 10 uM” value came to 4.88%.
Take `COc1ccc(/N=c2\sc(C)c(-c3ccc(OC)cc3)n2CCO)cc1`: the “% Inhibition @ 10 uM” value was determined as 2.22%.
With `CC(C)C[C@H](NC(=O)[C@@H]1CCCN1C#N)C(=O)OCc1ccccc1` the figure was -3.97%; with `Cc1ccccc1C1C(CN2CCOCC2)=C(c2ccccc2)Oc2ccccc21` (centres unmarked), 1.54%; with `Cc1nc2nc(SCC(=O)NC3CCCC3)nn2c(C)c1Cc1cccc(Cl)c1`, 0.457%.
As for `CN(C)CCN(C)Cc1cccc(C(F)(F)F)c1`, the “% Inhibition @ 10 uM” value is recorded as -0.856%.
To `CCCCc1ccc(-c2nc(N)sc2C)cc1` belongs -0.132%; to `COc1cc(C2C(C#N)=C(N)N(c3ccccc3)C3=C2C(=O)CCC3)cc(OC)c1OC` (centres unmarked), -1.08%.
To `CCOC(=O)C1=C(C)NC(=O)CC1c1ccccc1OC` (centres unmarked) belongs 2.92%.
As for `CC(C)Oc1ccc(C(=O)Nc2ccc(CN3CCOCC3)cc2)cc1`, the “% Inhibition @ 10 uM” value was 2.51% and -1.88%.
With `Cl/C(=C\c1ccccc1)CN1CCOCC1` the figure was 2.91%; with `O=C1CSC(c2ccc(F)cc2)N1c1ccccc1` (centres unmarked), 0.64%; with `c1cncc(-c2nc3c4ccccc4nc(NCCc4c[nH]c5ccccc45)n3n2)c1`, -6.07%.
To `COc1ccc(CCNS(=O)(=O)c2ccc(-n3cnnn3)c(OC)c2)cc1OC` belongs -2.84%.
With `O=C(C1=C(O)C(=O)N(c2nccs2)C1c1cccs1)c1cccs1` (centres unmarked) the figure was -0.0619%.
With `Cc1ccc(-c2nn3c(C)cc(C)nc3c2C#N)cc1`, the “% Inhibition @ 10 uM” value amounted to 4.3%.
With `COC(=O)c1ccc(C(=O)NCCCCO)cc1`, the “% Inhibition @ 10 uM” value is -0.615%.
